The other results are listed elsewhere or left out. The full chains were built here from the parent and the listed change. Inactive controls read about 0.05.
B1: TEV protease; numbered along this chain (parent)
chain: MGESLFKGPRDYNPISSSICHLTNESDGHTTSLYGIGFGPFIITNKHLFRRNNGTLVVQSLHGVFKVKDTTTLQQHLVDGRDMIIIRMPKDFPPFPQKLKFREPQREERICLVTTNFQTKSMSSMVSDTSCTFPSGDGIFWKHWIQTKDGQCGSPLVSTRDGFIVGIHSASNFTNTNNYFTSVPKNFMELLTNQEAQQWVSGWRLNADSVLWGGHKVFMVKPEEPFQPVKEATQL

Variants of: B1
Experiment: raw area under fraction-flipped curve 0-4 h after induction (AUC4h, not background-subtracted), DNA-recorder readout of cleavage of the substrate (dimensionless); higher = more cleavage of the substrate by the protease variant
Conditions: temperature: 34 °C; time window: 0-4 h after rhamnose induction
Protocol: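 In vivo DNA recorder in E. coli TOP10(DE3) ΔrhaA at 34 °C. Each TEVp single-site mutant (parent TEVp 0) is paired with a single-site variant of the 7-mer TEVs (canonical ENLYFQ|S). The substrate sits between flexible linkers in a Bxb1-sfGFP-TEVs-SsrA fusion, so cleavage stabilises Bxb1 and speeds flipping of a recombination array, read by NGS. The value is the raw area under the fraction-flipped curve over 0-4 h after rhamnose induction (AUC4h), with ≥20 reads per time point. It is not background-subtracted; inactive controls average about 0.047.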
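Note: Bxb1 expression induced with 0.2% (w/v) L-rhamnose at OD600 near 0.5, cultures sampled hourly, flipped fraction per protease–substrate barcode pair counted by paired-end Illumina sequencing.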

| Variant | area with substrate ANLYFQS | area with substrate FNLYFQS | area with substrate GNLYFQS | area with substrate HNLYFQS | area with substrate INLYFQS | area with substrate KNLYFQS | area with substrate LNLYFQS | area with substrate MNLYFQS | area with substrate PNLYFQS | area with substrate WNLYFQS |
| --- | --- | --- | --- | --- | --- | --- | --- | --- | --- | --- |
| A232L | 0.0499 | 0.0639 | 0.0739 | 0.0635 | 0.0701 | 0.0707 | 0.0643 | 0.0623 | 0.0668 | 0.0665 |
| A207M | 0.0623 | 0.0575 | 0.0618 | 0.0546 | 0.059 | – | – | – | – | 0.0356 |
| A207C | 0.0623 | – | 0.0662 | 0.0639 | – | – | 0.0641 | – | 0.0712 | 0.0677 |
| A207I | 0.0616 | – | – | 0.0584 | – | – | – | – | 0.0704 | 0.0587 |
| V210Y | 0.0507 | 0.0713 | 0.0519 | 0.0594 | 0.0639 | 0.0449 | – | 0.0646 | – | 0.0443 |
| F218R | 0.0584 | – | – | – | – | 0.0622 | – | – | 0.0613 | – |
| S209I | 0.0652 | – | – | – | – | – | 0.0591 | 0.0643 | 0.0723 | 0.151 |
| S209P | 0.077 | 0.0478 | – | – | – | 0.0582 | – | 0.058 | 0.0568 | 0.0595 |
| E195Y | 0.0596 | – | 0.0686 | – | – | – | – | – | – | 0.0527 |
| F226D | 0.069 | – | 0.0678 | 0.0624 | – | – | – | 0.0745 | – | 0.0791 |
| H215A | 0.0618 | – | 0.0645 | 0.0578 | – | 0.0429 | – | – | 0.0582 | 0.0707 |
| H215V | 0.0631 | – | – | – | 0.0586 | 0.0613 | 0.0444 | – | – | – |
| Y12I | – | 0.0836 | 0.0687 | 0.069 | 0.0696 | 0.076 | 0.0628 | 0.0541 | 0.0741 | 0.056 |
| G214S | 0.0614 | – | – | – | 0.0532 | 0.0656 | 0.0561 | – | – | 0.0688 |
| G214C | 0.0691 | 0.0667 | 0.0757 | – | 0.0534 | – | – | – | – | – |
| G8C | – | – | – | – | – | – | – | – | 0.0797 | – |
| G8W | – | – | 0.0612 | 0.0574 | – | 0.0744 | – | – | – | 0.0569 |
| E231W | 0.0649 | – | – | 0.0647 | – | 0.082 | 0.0626 | – | 0.0534 | 0.0564 |
| N193S | 0.0677 | 0.117 | – | – | 0.0554 | – | – | – | 0.0841 | 0.0643 |

| Variant | area with substrate ANLYFQS | area with substrate FNLYFQS | area with substrate GNLYFQS | area with substrate HNLYFQS | area with substrate INLYFQS | area with substrate KNLYFQS | area with substrate LNLYFQS | area with substrate MNLYFQS | area with substrate PNLYFQS | area with substrate WNLYFQS |
| --- | --- | --- | --- | --- | --- | --- | --- | --- | --- | --- |
| F187P | 0.0653 | – | – | 0.056 | 0.0361 | 0.0218 | 0.0656 | 0.0445 | – | 0.0548 |
| P228F | 0.0533 | – | – | – | – | – | – | – | – | 0.0572 |
| L235H | 0.0668 | – | 0.0368 | – | 0.0724 | 0.0487 | – | – | 0.0733 | 0.0716 |
| V217W | 0.0765 | 0.0751 | – | 0.0652 | 0.055 | 0.0506 | 0.0435 | – | 0.0487 | 0.0599 |
| Q234G | 0.0519 | – | 0.0706 | 0.072 | 0.0072 | – | – | 0.0507 | – | 0.0577 |
| P222W | 0.0676 | 0.0537 | – | 0.0511 | 0.066 | 0.0544 | 0.0627 | 0.058 | 0.0561 | 0.0476 |
| L205V | 0.0269 | – | – | 0.0502 | – | – | 0.0655 | 0.0718 | – | 0.0527 |
| N186Y | 0.0687 | 0.0509 | – | – | 0.0466 | – | 0.0408 | – | – | 0.0444 |
| W212E | 0.0523 | – | – | 0.0542 | 0.0612 | 0.0598 | 0.0322 | 0.0619 | – | 0.0646 |
| D11E | – | 0.0588 | 0.0754 | 0.0626 | 0.0594 | 0.0704 | 0.0861 | 0.0533 | 0.0722 | 0.0585 |
| E189K | 0.0668 | 0.0673 | 0.0728 | 0.0588 | – | – | – | 0.0659 | – | 0.0678 |
| E223Q | 0.0694 | 0.0349 | – | – | 0.0605 | – | – | 0.0826 | – | 0.063 |
| M219F | 0.0905 | – | 0.0623 | 0.0793 | 0.0934 | 0.0741 | – | 0.103 | 0.0638 | – |
| M219A | 0.0599 | – | 0.0605 | 0.0503 | – | – | – | – | 0.0792 | – |
| G202C | 0.0585 | – | 0.0605 | 0.0568 | – | 0.0499 | – | 0.0639 | 0.057 | 0.0574 |
| G202F | 0.0617 | 0.0657 | 0.05 | – | – | – | 0.0629 | 0.0609 | – | 0.067 |
| G202K | 0.054 | – | 0.0572 | – | – | 0.066 | – | – | 0.0402 | – |
| S4L | – | 0.108 | 0.0591 | 0.0717 | 0.071 | 0.0614 | 0.0529 | 0.0549 | 0.0679 | 0.0632 |
| Q197Y | 0.062 | – | – | – | – | 0.108 | – | – | – | – |

Same assay, conditions: temperature: 34 °C; time window: 0-4 h after rhamnose induction

| Variant | area with substrate YNLYFQS | area with substrate QNLYFQS | area with substrate NNLYFQS | area with substrate TNLYFQS | area with substrate DNLYFQS | area with substrate SNLYFQS | area with substrate VNLYFQS | area with substrate RNLYFQS | area with substrate CNLYFQS |
| --- | --- | --- | --- | --- | --- | --- | --- | --- | --- |
| A232L | 0.0644 | – | – | – | – | – | – | – | – |
| A207M | – | 0.0672 | – | – | – | – | – | – | – |
| A207C | 0.0657 | – | 0.0699 | 0.0643 | – | – | – | – | – |
| A207I | 0.067 | – | – | 0.08 | 0.0643 | 0.0652 | – | – | – |
| V210Y | 0.0489 | – | – | 0.0415 | – | 0.0544 | – | – | – |
| F218R | – | – | 0.0518 | 0.0599 | – | – | – | – | – |
| S209I | 0.0545 | – | 0.0727 | – | – | – | – | – | – |
| S209P | – | 0.0542 | – | 0.058 | – | 0.0721 | – | – | – |
| E195Y | 0.0561 | – | – | 0.0703 | – | 0.0709 | – | – | – |
| F226D | – | – | 0.0683 | 0.0992 | – | 0.0811 | 0.0683 | – | – |
| H215A | – | – | 0.0604 | 0.0503 | – | 0.0638 | 0.1 | 0.0483 | – |
| H215V | – | – | – | 0.0657 | 0.0528 | 0.0598 | 0.0614 | 0.0584 | – |
| Y12I | 0.0576 | – | 0.0753 | 0.0569 | 0.0696 | 0.0658 | 0.0612 | 0.068 | 0.0704 |
| G214S | 0.0518 | – | – | 0.0439 | – | 0.0489 | – | – | – |
| G214C | – | – | – | 0.065 | – | – | – | – | – |
| G8C | – | – | – | – | 0.0582 | – | – | – | 0.0574 |
| G8W | 0.0697 | – | – | 0.0655 | – | 0.0669 | 0.0544 | – | 0.109 |
| E231W | 0.0669 | – | – | 0.0676 | – | 0.0567 | – | – | – |
| N193S | 0.0599 | – | – | – | – | 0.0659 | – | – | – |

| Variant | area with substrate YNLYFQS | area with substrate QNLYFQS | area with substrate NNLYFQS | area with substrate TNLYFQS | area with substrate DNLYFQS | area with substrate SNLYFQS | area with substrate VNLYFQS | area with substrate RNLYFQS | area with substrate CNLYFQS |
| --- | --- | --- | --- | --- | --- | --- | --- | --- | --- |
| F187P | 0.0446 | – | – | 0.0572 | – | – | 0.0597 | – | – |
| P228F | 0.0642 | 0.0683 | 0.0661 | 0.0665 | – | – | 0.0758 | – | – |
| L235H | – | – | 0.0807 | 0.0279 | – | 0.0705 | 0.0617 | – | – |
| V217W | – | – | 0.0649 | – | – | – | – | – | – |
| Q234G | – | – | 0.0909 | – | – | 0.0766 | – | – | – |
| P222W | 0.0555 | 0.0865 | 0.069 | 0.0595 | – | – | 0.0776 | – | – |
| L205V | – | – | – | 0.073 | 0.0617 | – | – | – | – |
| N186Y | – | – | – | 0.0619 | – | 0.0565 | 0.0765 | – | – |
| W212E | 0.0535 | 0.0839 | 0.0647 | 0.0504 | – | 0.0647 | 0.0527 | 0.0849 | – |
| D11E | 0.0628 | 0.0674 | 0.0682 | 0.0652 | 0.0717 | 0.0509 | – | 0.0638 | 0.0643 |
| E189K | 0.0637 | 0.0693 | – | – | – | – | – | – | – |
| E223Q | 0.0896 | – | 0.0755 | – | – | – | – | – | – |
| M219F | 0.0744 | – | – | 0.0647 | – | 0.0583 | – | – | – |
| M219A | 0.0621 | 0.0513 | 0.0527 | 0.0561 | – | – | 0.0558 | – | – |
| G202C | – | – | 0.0641 | 0.0586 | – | 0.0617 | – | – | – |
| G202F | 0.053 | 0.068 | 0.0591 | 0.0522 | – | – | – | – | – |
| S4L | 0.0723 | 0.0705 | 0.0573 | 0.0585 | 0.0728 | 0.058 | 0.0646 | 0.0631 | 0.0644 |
| Q197Y | – | – | 0.0647 | 0.0508 | – | – | – | – | – |
